No constants are given. Whether binding was seen depends on the method and setting. In cells and extracts the contact can be indirect. Some entries that bind do so weakly or less than the wild type. For part of these data: Where a sequence is shown, tags or fusion partners need not be part of it.
Key:
Assay in all cases: split reporter; BiFC: fusions to YFP^N (1-155 aa) and YFP^C (156-239 aa) co-expressed transiently in Nicotiana benthamiana leaf epidermal cells; YFP seen by confocal microscopy
[1] = molecular target: T1, AtRFC2 Δ314–333 (Arabidopsis thaliana) (UniProt Q9CAM7)
T1 sequence: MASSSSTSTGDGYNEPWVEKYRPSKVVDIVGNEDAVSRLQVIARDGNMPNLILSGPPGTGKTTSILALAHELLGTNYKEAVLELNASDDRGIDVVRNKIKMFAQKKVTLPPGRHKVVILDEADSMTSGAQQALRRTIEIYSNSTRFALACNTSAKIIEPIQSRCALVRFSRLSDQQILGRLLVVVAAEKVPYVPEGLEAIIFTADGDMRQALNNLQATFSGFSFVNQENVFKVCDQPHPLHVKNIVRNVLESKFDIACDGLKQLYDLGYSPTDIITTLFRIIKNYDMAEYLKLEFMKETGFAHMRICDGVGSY

The chains behind the UniProt entries cited, without tags or fusion partners.
UniProt Q9ZW35: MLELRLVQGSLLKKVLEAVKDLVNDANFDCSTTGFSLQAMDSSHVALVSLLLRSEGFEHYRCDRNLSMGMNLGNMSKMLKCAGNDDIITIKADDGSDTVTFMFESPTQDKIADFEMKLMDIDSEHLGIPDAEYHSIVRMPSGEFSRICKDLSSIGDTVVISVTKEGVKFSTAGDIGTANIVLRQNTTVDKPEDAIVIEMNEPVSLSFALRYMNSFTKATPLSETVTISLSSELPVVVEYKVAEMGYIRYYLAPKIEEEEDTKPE
UniProt P17070: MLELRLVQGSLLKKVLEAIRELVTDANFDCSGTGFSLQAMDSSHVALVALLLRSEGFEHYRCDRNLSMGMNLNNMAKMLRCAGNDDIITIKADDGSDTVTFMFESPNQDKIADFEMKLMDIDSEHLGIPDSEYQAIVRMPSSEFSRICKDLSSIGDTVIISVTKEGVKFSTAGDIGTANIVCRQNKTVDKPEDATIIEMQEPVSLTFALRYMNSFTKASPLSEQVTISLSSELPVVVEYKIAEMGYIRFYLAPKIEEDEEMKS
UniProt Q9M7Q7: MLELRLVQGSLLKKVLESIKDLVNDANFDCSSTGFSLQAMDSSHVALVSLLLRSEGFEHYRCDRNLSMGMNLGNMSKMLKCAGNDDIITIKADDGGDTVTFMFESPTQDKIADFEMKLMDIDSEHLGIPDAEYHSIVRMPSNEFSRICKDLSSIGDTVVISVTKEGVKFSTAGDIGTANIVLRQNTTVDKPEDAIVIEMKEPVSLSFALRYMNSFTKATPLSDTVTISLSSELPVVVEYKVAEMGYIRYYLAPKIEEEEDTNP

[2] = molecular target: T2, AtRFC2-YFP^N (Arabidopsis thaliana) (UniProt Q9CAM7)
T2 sequence: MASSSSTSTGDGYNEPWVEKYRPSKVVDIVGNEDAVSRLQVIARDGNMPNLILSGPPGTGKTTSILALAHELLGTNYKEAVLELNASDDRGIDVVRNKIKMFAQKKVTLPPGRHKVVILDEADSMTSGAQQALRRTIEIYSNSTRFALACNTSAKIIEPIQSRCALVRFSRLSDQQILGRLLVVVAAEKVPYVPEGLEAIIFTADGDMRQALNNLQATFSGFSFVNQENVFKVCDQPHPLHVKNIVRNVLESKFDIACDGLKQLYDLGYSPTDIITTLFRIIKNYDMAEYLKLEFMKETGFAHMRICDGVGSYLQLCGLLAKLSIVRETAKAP

[3] = molecular target: AtRFC4 Δ320–339 (Arabidopsis thaliana) (UniProt Q93ZX1)
[4] = molecular target: T3, AtRFC2 without the N-terminal 224 aa (Arabidopsis thaliana) (UniProt Q9CAM7)
T3 sequence: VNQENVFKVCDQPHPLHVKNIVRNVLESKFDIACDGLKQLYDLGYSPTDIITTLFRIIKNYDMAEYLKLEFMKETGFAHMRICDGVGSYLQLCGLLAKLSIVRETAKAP

[5] = molecular target: AtRFC4 ΔC300–339 (Arabidopsis thaliana) (UniProt Q93ZX1)
[6] = molecular target: T4, AtRFC2 Δ294–333 (Arabidopsis thaliana) (UniProt Q9CAM7)
T4 sequence: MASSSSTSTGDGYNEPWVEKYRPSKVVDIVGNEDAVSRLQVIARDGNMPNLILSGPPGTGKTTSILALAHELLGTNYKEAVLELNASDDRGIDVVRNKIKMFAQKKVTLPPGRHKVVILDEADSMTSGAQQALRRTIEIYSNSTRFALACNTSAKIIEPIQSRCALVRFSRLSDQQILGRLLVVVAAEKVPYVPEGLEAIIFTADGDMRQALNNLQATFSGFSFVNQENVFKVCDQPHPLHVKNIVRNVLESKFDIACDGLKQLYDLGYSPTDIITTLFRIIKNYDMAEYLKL

[7] = molecular target: T5, AtRFC1-YFP^N (Arabidopsis thaliana) (UniProt Q9C587)
T5 sequence: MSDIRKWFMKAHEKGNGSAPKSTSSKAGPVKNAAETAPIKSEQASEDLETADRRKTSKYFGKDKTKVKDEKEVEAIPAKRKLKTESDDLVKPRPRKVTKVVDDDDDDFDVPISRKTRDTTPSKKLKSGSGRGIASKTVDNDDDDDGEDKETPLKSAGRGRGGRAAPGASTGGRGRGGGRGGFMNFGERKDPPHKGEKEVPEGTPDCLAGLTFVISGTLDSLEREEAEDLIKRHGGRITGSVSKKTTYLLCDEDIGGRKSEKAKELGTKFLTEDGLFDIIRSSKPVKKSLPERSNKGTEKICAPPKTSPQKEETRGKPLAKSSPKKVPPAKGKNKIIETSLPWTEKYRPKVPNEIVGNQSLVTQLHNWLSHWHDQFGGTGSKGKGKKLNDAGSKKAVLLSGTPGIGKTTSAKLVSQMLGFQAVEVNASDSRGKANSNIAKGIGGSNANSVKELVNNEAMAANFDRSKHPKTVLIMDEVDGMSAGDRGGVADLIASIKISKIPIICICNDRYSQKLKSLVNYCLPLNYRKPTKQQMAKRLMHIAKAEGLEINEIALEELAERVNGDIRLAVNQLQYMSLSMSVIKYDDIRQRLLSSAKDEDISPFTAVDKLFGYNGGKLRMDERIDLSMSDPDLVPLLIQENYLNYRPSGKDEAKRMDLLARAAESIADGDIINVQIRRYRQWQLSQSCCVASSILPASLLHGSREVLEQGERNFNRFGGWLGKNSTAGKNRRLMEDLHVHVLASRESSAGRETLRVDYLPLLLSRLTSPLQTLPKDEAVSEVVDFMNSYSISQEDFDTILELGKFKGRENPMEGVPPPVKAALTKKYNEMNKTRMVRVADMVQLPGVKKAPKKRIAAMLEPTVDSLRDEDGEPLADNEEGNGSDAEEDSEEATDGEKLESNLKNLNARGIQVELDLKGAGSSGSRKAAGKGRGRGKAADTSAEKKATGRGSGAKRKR

[8] = molecular target: T6, AtRFC4 Δ1–213 (Arabidopsis thaliana) (UniProt Q93ZX1)
T6 sequence: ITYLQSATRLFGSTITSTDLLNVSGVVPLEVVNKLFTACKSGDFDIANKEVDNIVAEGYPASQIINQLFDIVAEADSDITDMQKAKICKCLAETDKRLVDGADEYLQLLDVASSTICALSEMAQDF

binding [1]	binding [2]	binding [3]	binding [4]	binding [5]	binding [6]	binding [7]	binding [8]	Substance
binds	binds	binds	binds	no binding	no binding	no binding	binds	AtPCNA2-YFP^C (from UniProt Q9ZW35 1-264)
	binds					no binding		OsPCNA-YFP^C (from UniProt P17070 1-263)
binds	binds	binds	binds	no binding	no binding	no binding	binds	AtPCNA1-YFP^C (from UniProt Q9M7Q7 1-263)

Source: paper PMC6570896
